{"source": "PubChem BioAssay AID624417", "about": "(National Center for Advancing Translational Sciences (NCATS), 2012)", "note": "Hit rate of the full screen: of about 410,000 compounds, about 6,400 (1.6%) were called active. The shares of active, inactive and inconclusive entries below differ from those in the screen. Calls come from the whole dose curve; as a rule, active = well fitted inhibition curve with a large enough effect; inconclusive = small, poorly fitted or top-dose-only effect; inactive = no such curve, though single readings can be large or run the other way. Potencies of inconclusive entries are left out as doubtful fits. % is set by controls: 0 for no effect and ±100 for the full control effect; potency is the fitted concentration of half-maximal effect; tags give direction and shape of the fitted curve.", "data": [{"target": "Glucagon-like peptide 1 receptor (Homo sapiens) (UniProt P43220)", "sequence (P43220 whole entry, looked up)": "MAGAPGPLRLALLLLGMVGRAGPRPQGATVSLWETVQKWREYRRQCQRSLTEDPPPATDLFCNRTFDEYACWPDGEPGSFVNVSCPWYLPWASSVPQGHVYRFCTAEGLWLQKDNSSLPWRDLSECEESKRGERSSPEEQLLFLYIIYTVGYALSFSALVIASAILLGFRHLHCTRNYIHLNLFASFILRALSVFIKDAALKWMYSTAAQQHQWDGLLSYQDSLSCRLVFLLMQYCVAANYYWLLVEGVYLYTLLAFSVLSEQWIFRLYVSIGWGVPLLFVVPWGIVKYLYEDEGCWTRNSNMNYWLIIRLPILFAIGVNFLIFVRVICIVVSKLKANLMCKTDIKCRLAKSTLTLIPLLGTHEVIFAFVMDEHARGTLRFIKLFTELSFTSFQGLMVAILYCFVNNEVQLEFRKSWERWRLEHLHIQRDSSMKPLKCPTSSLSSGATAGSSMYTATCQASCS", "experiment": "qHTS of GLP-1 Receptor Inverse Agonists (Inhibition Mode); note: nearly all actives have a fitted effect of over 55% in size", "conditions": "HEK293 GLP-1R CRE-luciferase, luminescence, 24 h, GLP-1R form is constitutively active; activity change, negative = inhibition: at 38.3 µM (top of the series) unless noted", "in_short": "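Inverse agonists were sought by their lowering of basal cAMP reporter luciferase output in HEK293 cells stably carrying constitutively active human GLP-1R, after 24 h compound treatment.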", "values": [{"smiles": "COc1ccc(NC(=O)NC2CCCCCCC2)cc1", "Potency": "inconclusive [inhibitor, single point]"}, {"smiles": "CCOC(=O)C1(C)C=C(Nc2cccc(C)c2)C(=O)N1c1ccccc1", "note": "(stereo not given)", "Potency": "inconclusive [inhibitor, single point]"}, {"smiles": "Cc1ccc(-n2c(SCc3cn4ccsc4n3)nc3ccccc3c2=O)cc1", "Potency": "inconclusive [inhibitor, single point]"}, {"smiles": "COCCN=c1scc(-c2ccccc2)n1/N=C/c1c[nH]c2ccccc12", "Potency": "active: 3.98 µM"}, {"smiles": "C=CCC[C@H](CCCCC)OC(=O)/C=C/[C@H](O)[C@@H](O)C[C@@H](O)CC=C", "Potency": "inconclusive [inhibitor, partial curve, poor fit]"}, {"smiles": "O=C(Cn1ccc2ccccc2c1=O)NCCC(=O)Nc1ccc2c(c1)OCCO2", "Potency": "inconclusive [inhibitor, partial curve, poor fit]"}, {"smiles": "COc1ccc(C2=C(C)C(=O)N(Cc3ccc(C(=O)Nc4ccc(C)c(C)c4)cc3)S2(=O)=O)cc1", "Potency": "inconclusive [inhibitor, partial curve, poor fit]"}, {"smiles": "CCN(CC(=O)Nc1c(F)cccc1F)C(=O)Cc1ccc2c(c1)CCC2", "Potency": "inconclusive [inhibitor, partial curve, poor fit]"}, {"smiles": "O=CC1=C(c2ccccc2)Oc2ccccc2O1", "Potency": "inconclusive [inhibitor, partial curve, poor fit]"}, {"smiles": "CC(C)(C)c1ccc(C(=O)NC(=S)N2CCCC2)cc1", "activity change, negative = inhibition": "inactive: -14.6%"}, {"smiles": "Fc1ccc(N=c2ssnc2Cl)c(F)c1", "activity change, negative = inhibition": "inactive: -15.9%"}, {"smiles": "CCc1ccc(NC(=O)CSc2nc(C)cs2)cc1", "Potency": "inconclusive [inhibitor, single point]"}, {"smiles": "C=CCn1c(SCC(=O)c2ccc(O)c(O)c2)nnc1-c1ccc(OC)cc1", "Potency": "inconclusive [inhibitor, single point]"}, {"smiles": "O=C(NCCC1CCCCN1S(=O)(=O)c1ccccc1)C(=O)Nc1ccccc1F", "note": "(stereo not given)", "Potency": "inconclusive [inhibitor, single point]"}, {"smiles": "CCCCNC(=O)C1(C)CCCCN1Cc1ccccc1-c1ccccc1", "note": "(stereo not given)", "Potency": "active: 2.51 µM"}, {"smiles": "CC1CN(S(=O)(=O)c2cccc(C(=O)Nc3ccc4c(c3)CCC4)c2)CC(C)O1", "note": "(stereo not given)", "Potency": "inconclusive [inhibitor, partial curve, poor fit]"}, {"smiles": "Cc1cc(C)nc(N(C#N)Cc2cccc3ccccc23)n1", "Potency": "inconclusive [inhibitor, partial curve]"}, {"smiles": "O=C(NCc1ccc2c(c1)OCO2)c1cc(-c2ccccc2Cl)on1", "Potency": "inconclusive [inhibitor, single point]"}, {"smiles": "O=[N+]([O-])c1cc(-c2cnc3ccccc3n2)ccc1Oc1ccc(Cl)cc1", "Potency": "inconclusive [inhibitor, partial curve, poor fit]"}, {"smiles": "Cc1oc(-c2ccccc2F)nc1CS(=O)(=O)CC(=O)NC(C)CCc1ccccc1", "note": "(stereo not given)", "Potency": "inconclusive [inhibitor, partial curve, poor fit]"}, {"smiles": "COc1ccc(NC(=S)NCc2ccc(Cl)cc2)c(OC)c1", "Potency": "inconclusive [inhibitor, single point]"}, {"smiles": "COCc1nc(-c2ccc(-c3ccccc3)nc2OC)no1", "activity change, negative = inhibition": "inactive: -1.61%"}, {"smiles": "CC1CCN(S(=O)(=O)c2ccc3nc(Nc4cccc(C(F)(F)F)c4)ccc3c2)CC1", "Potency": "inconclusive [inhibitor, partial curve, poor fit]"}, {"smiles": "COc1cccc(-c2nc(SCC(=O)NC3CCCC3)c(-c3ccc(F)cc3)[nH]2)c1", "Potency": "inconclusive [inhibitor, single point]"}, {"smiles": "CC(C)(C)c1cc(C(=O)NCCCn2ccnc2)cc(C(C)(C)C)c1", "Potency": "inconclusive [inhibitor, partial curve, poor fit]"}, {"smiles": "CCN(CC)CCN(Cc1cc2cc(C)ccc2[nH]c1=O)C(=O)Nc1ccccc1OC", "Potency": "active: 12.6 µM"}, {"smiles": "N#Cc1c(N)c(C#N)c(-c2ccc(O)cc2)c2c1CCCC2", "activity change, negative = inhibition": "inactive: -18.7%"}, {"smiles": "Cc1ccc(-n2c(SCC(=O)N3CCN(c4ccccn4)CC3)nnc2N2CCCC2)cc1", "Potency": "inconclusive [inhibitor, partial curve, poor fit]"}, {"smiles": "CN(C)S(=O)(=O)c1ccc(C(=O)NCCSc2ccc(Br)cc2)cc1", "Potency": "inconclusive [inhibitor, full curve, poor fit]"}, {"smiles": "CC(C)c1ccccc1OCC(=O)NCC(c1cccs1)N1CCOCC1", "note": "(stereo not given)", "Potency": "inconclusive [inhibitor, single point]"}, {"smiles": "COc1ccc(CN2CCN(Cc3c[nH]c4ccccc34)CC2)cc1OC", "activity change, negative = inhibition": "inactive: -10.8%"}, {"smiles": "CCOC(=O)c1c(-c2cccs2)csc1NC(=O)CC(C)C", "Potency": "inconclusive [inhibitor, full curve, poor fit]"}, {"smiles": "CCOc1ccc(N(CC(=O)N2CCN(c3ccc(F)cc3)CC2)S(=O)(=O)c2c(C)noc2C)cc1", "Potency": "inconclusive [inhibitor, full curve, poor fit]"}, {"smiles": "CC(C)=CCN1CCN(Cc2ccc(C#CC(C)(C)O)cc2)CC1CCO", "note": "(stereo not given)", "Potency": "inconclusive [inhibitor, single point]"}, {"smiles": "COc1ccccc1N(CC(=O)NC1CCCCC1)C(=O)Cn1nnc(-c2ccc(C)o2)n1", "Potency": "inconclusive [inhibitor, partial curve, poor fit]"}, {"smiles": "Cc1cccc(NC(NC(=O)Cc2ccccc2)C(Cl)(Cl)Cl)c1", "note": "(stereo not given)", "Potency": "inconclusive [inhibitor, partial curve, poor fit]"}, {"smiles": "CCOc1ccc(/C=C/c2nc3ccccc3n2S(=O)(=O)c2cccc(Cl)c2)cc1", "Potency": "inconclusive [inhibitor, single point]"}, {"smiles": "C=CCN(c1ccccc1)S(=O)(=O)c1cccc(C(=O)NCC(c2ccc(F)cc2)N2CCOCC2)c1", "note": "(stereo not given)", "Potency": "inconclusive [inhibitor, single point]"}, {"smiles": "COc1cc(C(=O)NCC(c2ccccc2)N(C)C)ccc1OCc1c(C)noc1C", "note": "(stereo not given)", "activity change, negative = inhibition": "inactive: -22.4%"}, {"smiles": "CCOC(=O)c1cc(-c2ccc(OC)cc2)n(CCC(=O)Nc2ccc(OC)cc2OC)c1C", "Potency": "inconclusive [inhibitor, single point]"}]}]}
